According to the supplement of paper PMC4967469:
Lines with a small IC50 respond at low doses; a limit (>, <) means that the fit lies beyond the doses tested. The AUC spans the tested range (256-fold, ending at the top dose) of the same fit; the more sensitive the line, the further below 1. The top dose, if marked as inferred, is not printed in the source and was worked back from the curve model. For part of these data: Where an entry number is given, a second screen of the drug exists; the two often differ.

How the values were obtained:
Assay in all cases: Viability of human cancer cell lines after 72 h of drug (GDSC screen)
[1] = compound: COc1cc(C(=O)NC2CCN(C)CC2)ccc1Nc1ncc2c(n1)N(C1CCCC1)CCC(=O)N2C(C)C [XMD11-85h]; details: top dose 10 µM; top dose inferred
Procedure: (§1)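 Human cancer cell lines in 384-well plates, medium with 10% serum, drug for 72 h over a 256-fold dose range (nine 2-fold or five 4-fold steps up to the top dose). Adherent lines were fixed and stained with the nucleic acid dye Syto60, suspension lines read with resazurin; signal relative to control wells, capped at 0 and 100%. One two-parameter sigmoid per drug and line, fitted in a mixed model over all curves with the slope shared within a line.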

[2] = compound: Cc1cc([C@@H](C)Nc2ccccc2C(=O)O)c2nc(N3CCOCC3)cc(=O)n2c1 [AZD6482]
Procedure: as §1

[3] = compound: NS(=O)(=O)OC[C@@H]1C[C@@H](n2ccc3c(N[C@H]4CCc5ccccc54)ncnc32)C[C@@H]1O [MLN4924]; details: top dose 1 µM; top dose inferred
Procedure: as §1

[4] = compound: Cn1ncnc1[C@H]1c2n[nH]c(=O)c3cc(F)cc(c23)N[C@@H]1c1ccc(F)cc1 [BMN-673]; details: top dose 10 µM; top dose inferred
Procedure: as §1

[5] = top dose 5 µM, screen: GDSC drug entry 1066, top dose inferred
[6] = top dose 5.12 µM, screen: GDSC drug entry 156

## AGS (stomach, adherent)
[1]
  AUC: 0.908
  IC50: > 10 µM
[2]; [5]
  AUC: 0.913
  IC50: > 5 µM
[2]; [6]
  AUC: 0.918
  IC50: > 5.12 µM

## AU565 (breast, adherent)
[1]
  AUC: 0.961
  IC50: > 10 µM
[2]; [5]
  AUC: 0.909
  IC50: > 5 µM
[2]; [6]
  AUC: 0.913
  IC50: > 5.12 µM

## C-4-I (cervix, adherent)
[1]
  AUC: 0.926
  IC50: > 10 µM
[2]; [5]
  AUC: 0.891
  IC50: > 5 µM
[2]; [6]
  AUC: 0.968
  IC50: > 5.12 µM

## CAL-78 (chondrosarcoma, adherent)
[1]
  AUC: 0.935
  IC50: > 10 µM
[2]; [5]
  AUC: 0.983
  IC50: > 5 µM
[2]; [6]
  AUC: 0.865
  IC50: > 5.12 µM

## CAPAN-1 (pancreas, adherent)
[1]
  AUC: 0.985
  IC50: > 10 µM
[2]; [5]
  AUC: 0.984
  IC50: > 5 µM
[2]; [6]
  AUC: 0.938
  IC50: > 5.12 µM

## DMS-273 (small cell lung carcinoma, adherent)
[1]
  AUC: 0.957
  IC50: > 10 µM
[2]; [5]
  AUC: 0.714
  IC50: 1.31 µM
[2]; [6]
  AUC: 0.861
  IC50: 4.76 µM

## HCC1395 (breast, adherent)
[1]
  AUC: 0.982
  IC50: > 10 µM
[2]; [5]
  AUC: 0.929
  IC50: > 5 µM
[2]; [6]
  AUC: 0.944
  IC50: > 5.12 µM

## HCC2998 (large intestine, adherent)
[1]
  AUC: 0.916
  IC50: > 10 µM
[2]; [5]
  AUC: 0.968
  IC50: > 5 µM
[2]; [6]
  AUC: 0.988
  IC50: > 5.12 µM

## HCT-116 (large intestine, adherent)
[1]
  AUC: 0.886
  IC50: > 10 µM
[2]; [5]
  AUC: 0.941
  IC50: > 5 µM
[2]; [6]
  AUC: 0.84
  IC50: 3.28 µM

## HT55 (large intestine, adherent)
[1]
  AUC: 0.99
  IC50: > 10 µM
[2]; [5]
  AUC: 0.99
  IC50: > 5 µM
[2]; [6]
  AUC: 0.983
  IC50: > 5.12 µM

## IM-95 (stomach, adherent)
[1]
  AUC: 0.984
  IC50: > 10 µM
[2]; [5]
  AUC: 0.956
  IC50: > 5 µM
[2]; [6]
  AUC: 0.866
  IC50: 5.12 µM

## KYSE-140 (oesophagus, adherent)
[1]
  AUC: 0.965
  IC50: > 10 µM
[2]; [5]
  AUC: 0.984
  IC50: > 5 µM
[2]; [6]
  AUC: 0.982
  IC50: > 5.12 µM

## LoVo (large intestine, adherent)
[1]
  AUC: 0.915
  IC50: > 10 µM
[2]; [6]
  AUC: 0.7
  IC50: 1.17 µM

## MKN28 (stomach, adherent)
[1]
  AUC: 0.932
  IC50: > 10 µM
[2]; [5]
  AUC: 0.964
  IC50: > 5 µM
[2]; [6]
  AUC: 0.986
  IC50: > 5.12 µM

## NB6 (neuroblastoma, adherent)
[1]
  AUC: 0.93
  IC50: > 10 µM
[2]; [5]
  AUC: 0.936
  IC50: > 5 µM
[2]; [6]
  AUC: 0.937
  IC50: > 5.12 µM

## NB69 (neuroblastoma, adherent)
[1]
  AUC: 0.893
  IC50: 9.52 µM
[2]; [5]
  AUC: 0.917
  IC50: > 5 µM
[2]; [6]
  AUC: 0.883
  IC50: 4.42 µM

## NEC8 (testis, adherent)
[1]
  AUC: 0.989
  IC50: > 10 µM
[2]; [5]
  AUC: 0.823
  IC50: 2.37 µM
[2]; [6]
  AUC: 0.954
  IC50: > 5.12 µM

## SNU-182 (liver, adherent)
[3]
  AUC: 0.815
  IC50: 0.58 µM
[4]
  AUC: 0.892
  IC50: > 10 µM
[2]; [5]
  AUC: 0.958
  IC50: > 5 µM
[2]; [6]
  AUC: 0.937
  IC50: > 5.12 µM

## SNU-398 (liver, adherent)
[3]
  AUC: 0.939
  IC50: > 1 µM
[4]
  AUC: 0.928
  IC50: > 10 µM
[2]; [5]
  AUC: 0.985
  IC50: > 5 µM
[2]; [6]
  AUC: 0.884
  IC50: > 5.12 µM

## SNU-423 (liver, adherent)
[3]
  AUC: 0.937
  IC50: > 1 µM
[4]
  AUC: 0.89
  IC50: > 10 µM
[2]; [5]
  AUC: 0.889
  IC50: > 5 µM
[2]; [6]
  AUC: 0.678
  IC50: 1.1 µM

## SNU-449 (liver, adherent)
[3]
  AUC: 0.985
  IC50: > 1 µM
[4]
  AUC: 0.949
  IC50: > 10 µM
[2]; [5]
  AUC: 0.932
  IC50: > 5 µM
[2]; [6]
  AUC: 0.856
  IC50: 4.77 µM

## ST486 (Burkitt lymphoma, suspension)
[3]
  AUC: 0.943
  IC50: > 1 µM
[4]
  AUC: 0.989
  IC50: > 10 µM
[2]; [5]
  AUC: 0.98
  IC50: > 5 µM
[2]; [6]
  AUC: 0.929
  IC50: > 5.12 µM

## SU-DHL-4 (B-cell lymphoma, suspension)
[3]
  AUC: 0.98
  IC50: > 1 µM
[4]
  AUC: 0.997
  IC50: > 10 µM
[2]; [5]
  AUC: 0.971
  IC50: > 5 µM
[2]; [6]
  AUC: 0.853
  IC50: 2.38 µM

## SU-DHL-5 (B-cell lymphoma, suspension)
[3]
  AUC: 0.67
  IC50: 0.162 µM
[4]
  AUC: 0.524
  IC50: 0.713 µM
[2]; [5]
  AUC: 0.568
  IC50: 0.457 µM
[2]; [6]
  AUC: 0.476
  IC50: 0.28 µM

## SU-DHL-16 (B-cell lymphoma, suspension)
[3]
  AUC: 0.675
  IC50: 0.166 µM
[4]
  AUC: 0.996
  IC50: > 10 µM
[2]; [5]
  AUC: 0.937
  IC50: 4.48 µM
[2]; [6]
  AUC: 0.936
  IC50: 4.56 µM

## SUIT-2 (pancreas, adherent)
[3]
  AUC: 0.921
  IC50: > 1 µM
[4]
  AUC: 0.718
  IC50: 2.69 µM
[2]; [5]
  AUC: 0.974
  IC50: > 5 µM
[2]; [6]
  AUC: 0.979
  IC50: > 5.12 µM

## SUP-B8 (B-cell leukaemia, suspension)
[3]
  AUC: 0.974
  IC50: > 1 µM
[4]
  AUC: 0.977
  IC50: > 10 µM
[2]; [5]
  AUC: 0.877
  IC50: 4.93 µM

## SUP-HD1 (Hodgkin lymphoma, suspension)
[3]
  AUC: 0.805
  IC50: 0.477 µM
[4]
  AUC: 0.613
  IC50: 1.25 µM
[2]; [5]
  AUC: 0.947
  IC50: > 5 µM
[2]; [6]
  AUC: 0.96
  IC50: > 5.12 µM

## SUP-M2 (anaplastic large cell lymphoma, suspension)
[3]
  AUC: 0.772
  IC50: 0.299 µM
[4]
  AUC: 0.043
  IC50: < 0.0391 µM
[2]; [5]
  AUC: 0.993
  IC50: > 5 µM
[2]; [6]
  AUC: 0.994
  IC50: > 5.12 µM

## SUP-T1 (T-cell lymphoblastic leukaemia, suspension)
[3]
  AUC: 0.901
  IC50: > 1 µM
[4]
  AUC: 0.908
  IC50: > 10 µM
[2]; [5]
  AUC: 0.975
  IC50: > 5 µM
[2]; [6]
  AUC: 0.923
  IC50: > 5.12 µM

## SW13 (adrenal gland, adherent)
[3]
  AUC: 0.837
  IC50: 0.681 µM
[4]
  AUC: 0.895
  IC50: > 10 µM
[2]; [5]
  AUC: 0.904
  IC50: > 5 µM
[2]; [6]
  AUC: 0.937
  IC50: > 5.12 µM

## SW156 (kidney, adherent)
[3]
  AUC: 0.945
  IC50: > 1 µM
[4]
  AUC: 0.955
  IC50: > 10 µM
[2]; [5]
  AUC: 0.779
  IC50: 2.29 µM
[2]; [6]
  AUC: 0.841
  IC50: 4.17 µM

## SW756 (cervix, adherent)
[3]
  AUC: 0.831
  IC50: 0.809 µM
[4]
  AUC: 0.78
  IC50: 4.94 µM
[2]; [6]
  AUC: 0.975
  IC50: > 5.12 µM

## SW780 (bladder, adherent)
[3]
  AUC: 0.77
  IC50: 0.414 µM
[4]
  AUC: 0.885
  IC50: > 10 µM
[2]; [5]
  AUC: 0.871
  IC50: > 5 µM
[2]; [6]
  AUC: 0.909
  IC50: > 5.12 µM

## SW837 (large intestine, adherent)
[3]
  AUC: 0.98
  IC50: > 1 µM
[4]
  AUC: 0.975
  IC50: > 10 µM
[2]; [5]
  AUC: 0.931
  IC50: > 5 µM
[2]; [6]
  AUC: 0.965
  IC50: > 5.12 µM
